Measured values as given in the supplement of paper PMC3334620.
In all, about 33,000 sequences were measured (“E-score (-0.5 to 0.5)”: median about -0.012, highest 2% from about 0.29 on). This is one part of the list.

What follows are sequences tested against T1, Ybr033w (UniProt P38073) (assay: PBM E-score (8-mer binding enrichment) (E-score (-0.5 to 0.5)); higher = stronger / more preferred TF binding; most listed sequences are background and not binding sites). Conditions: protein concentration: 200 nM; construct: GST-full length.
T1 sequence: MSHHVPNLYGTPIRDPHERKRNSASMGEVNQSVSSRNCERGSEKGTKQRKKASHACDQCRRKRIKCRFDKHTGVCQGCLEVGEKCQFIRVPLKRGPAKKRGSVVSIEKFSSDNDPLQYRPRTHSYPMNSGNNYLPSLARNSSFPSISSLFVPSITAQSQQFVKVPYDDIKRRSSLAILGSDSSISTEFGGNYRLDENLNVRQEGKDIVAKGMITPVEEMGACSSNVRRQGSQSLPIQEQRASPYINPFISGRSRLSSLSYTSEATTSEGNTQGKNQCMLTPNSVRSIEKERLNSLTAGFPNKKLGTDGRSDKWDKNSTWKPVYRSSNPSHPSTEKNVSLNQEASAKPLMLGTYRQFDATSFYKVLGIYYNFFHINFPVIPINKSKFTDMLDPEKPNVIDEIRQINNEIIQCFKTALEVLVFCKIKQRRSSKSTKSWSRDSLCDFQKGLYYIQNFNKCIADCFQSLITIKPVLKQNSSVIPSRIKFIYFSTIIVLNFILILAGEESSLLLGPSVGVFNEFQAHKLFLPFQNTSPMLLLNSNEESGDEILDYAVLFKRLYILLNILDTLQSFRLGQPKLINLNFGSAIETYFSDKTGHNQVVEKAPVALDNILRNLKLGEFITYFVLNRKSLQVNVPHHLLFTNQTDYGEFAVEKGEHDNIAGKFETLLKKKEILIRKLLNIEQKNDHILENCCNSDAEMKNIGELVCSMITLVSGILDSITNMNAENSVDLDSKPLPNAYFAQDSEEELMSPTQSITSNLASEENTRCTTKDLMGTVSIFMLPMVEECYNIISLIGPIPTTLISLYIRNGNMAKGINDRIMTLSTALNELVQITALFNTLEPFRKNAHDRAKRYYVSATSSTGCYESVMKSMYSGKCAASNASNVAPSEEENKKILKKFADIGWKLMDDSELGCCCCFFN
Protocol: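 Universal 'all 10-mer' protein binding microarrays (Agilent AMADID 015681) probed with GST-tagged S. cerevisiae TFs (full-length or DBD) made by in vitro transcription/translation (PURExpress), about 100-200 nM. Bound TF was detected with fluorescent anti-GST. Each ungapped 8-mer (which stands for itself and its reverse complement) is scored by the PBM enrichment score (E-score), a modified Wilcoxon-Mann-Whitney statistic from -0.5 to +0.5, computed with the Universal PBM Analysis Suite. Scale: above 0.35 generally sequence-specific binding.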
In the case of GTGGCTGA, the “PBM E-score” value is reported as -0.183. ACAGCTTC was tested, and the “PBM E-score” value was -0.0252. For GTCTTACA, the “PBM E-score” value was -0.0881. With CAGTTTAG the “PBM E-score” value was -0.119. With CGGGATGA the “PBM E-score” value was -0.105. In the case of CAAACCTC, the “PBM E-score” value is reported as -0.143. With CGTCCTGA the “PBM E-score” value was -0.175. In the case of CCCTCGTC, the “PBM E-score” value is reported as -0.185. In the case of CTCAAAAC, the “PBM E-score” value is reported as 0.217. With ATAGCTAA the “PBM E-score” value was -0.15. For ATGGCTAA, the “PBM E-score” value was 0.0256. In the case of AAACGCGG, the “PBM E-score” value is reported as 0.0652. For GTTCACGA, the “PBM E-score” value was 0.00909. GGATGTAC was tested, and the “PBM E-score” value was 0.0229. In the case of AAGATTCT, the “PBM E-score” value is reported as 0.0852. In the case of CAGTTCTA, the “PBM E-score” value is reported as -0.0312. CTCTACAG was tested, and the “PBM E-score” value was 0.00706. In the case of ATTAAGCC, the “PBM E-score” value is reported as 0.0562. With CTCTGAAA the “PBM E-score” value was -0.057. In the case of AGCGACCA, the “PBM E-score” value is reported as 0.00765. In the case of ACTAGGAA, the “PBM E-score” value is reported as 0.067. With ATCTCCCG the “PBM E-score” value was -0.206. For CGTTAGTC, the “PBM E-score” value was 0.043. For AATTAGGT, the “PBM E-score” value was 0.249. With CGGACGTA the “PBM E-score” value was -0.151. For GCAAATGC, the “PBM E-score” value was -0.183. For ATCGAATC, the “PBM E-score” value was 0.0745. With CCGCCGAC the “PBM E-score” value was -0.17. AATTATGC was tested, and the “PBM E-score” value was 0.21. GCCTCAGC was tested, and the “PBM E-score” value was -0.194. For CCGCCCGG, the “PBM E-score” value was -0.168. In the case of GAGCAGTA, the “PBM E-score” value is reported as 0.108. For CATCTATA, the “PBM E-score” value was 0.188. AATGATCA was tested, and the “PBM E-score” value was 0.0742. With GCATTCGC the “PBM E-score” value was -0.0981. With TGAGTCAA the “PBM E-score” value was 0.0985. For AGCCAGCA, the “PBM E-score” value was -0.0216. For CTCGTGTC, the “PBM E-score” value was -0.153. For CTACTTTA, the “PBM E-score” value was 0.0924. AACGGTAC was tested, and the “PBM E-score” value was 0.215. For GCGAAAGA, the “PBM E-score” value was -0.108. With AGCGAAAT the “PBM E-score” value was 0.0244. GAATACAA was tested, and the “PBM E-score” value was 0.196. With CGTTGCGC the “PBM E-score” value was -0.0731. With GACAAAAA the “PBM E-score” value was 0.261. With CGAAGGTC the “PBM E-score” value was -0.183. With ATCGGGGG the “PBM E-score” value was -0.37. With ATTGGCTC the “PBM E-score” value was 0.038. In the case of ACGCCCTC, the “PBM E-score” value is reported as -0.122. ATCTATGG was tested, and the “PBM E-score” value was -0.223. In the case of AATGGGTG, the “PBM E-score” value is reported as 0.0974. In the case of GGGGAGTA, the “PBM E-score” value is reported as -0.101. For ATACTTGG, the “PBM E-score” value was 0.0407. ACGAGACA was tested, and the “PBM E-score” value was 0.0368. In the case of AAAGGCCG, the “PBM E-score” value is reported as -0.0673. For GTGTCAAA, the “PBM E-score” value was 0.118. In the case of ATTCACTC, the “PBM E-score” value is reported as 0.104. For AAAACCAA, the “PBM E-score” value was 0.0921. For CCTACGTC, the “PBM E-score” value was -0.0878. ATGAATTA was tested, and the “PBM E-score” value was 0.263. CATTAACC was tested, and the “PBM E-score” value was 0.136. In the case of ATCAGTCG, the “PBM E-score” value is reported as 0.122. ACTGTTCT was tested, and the “PBM E-score” value was 0.114. CATTCCCG was tested, and the “PBM E-score” value was -0.0262. In the case of CAGTACAA, the “PBM E-score” value is reported as -0.0931. In the case of AAAAGCTT, the “PBM E-score” value is reported as -0.0171. For ACATGTCC, the “PBM E-score” value was 0.0496. In the case of AATCTCAC, the “PBM E-score” value is reported as 0.0647. For GTACGGGA, the “PBM E-score” value was -0.0923. For ATTTCAAG, the “PBM E-score” value was 0.187. GGCAGTAC was tested, and the “PBM E-score” value was -0.188. For CCATTGGG, the “PBM E-score” value was -0.225. For GCGCATCC, the “PBM E-score” value was -0.0235. With GTATACAA the “PBM E-score” value was 0.203. For GCCGGTAC, the “PBM E-score” value was -0.201. For AAGAGAGA, the “PBM E-score” value was 0.00326. In the case of CATCCTCA, the “PBM E-score” value is reported as -0.0905. AATTCCAG was tested, and the “PBM E-score” value was 0.0825. With AATTTAAG the “PBM E-score” value was 0.211. For CAGTGATA, the “PBM E-score” value was 0.0511. For CGCTGGGA, the “PBM E-score” value was -0.213. For AAATATCG, the “PBM E-score” value was 0.247. With TCTGTAAA the “PBM E-score” value was 0.0762. In the case of ACCAAGGT, the “PBM E-score” value is reported as -0.034. With ACCATCCT the “PBM E-score” value was 0.043. With CACCCCAC the “PBM E-score” value was -0.0862.
